# Test results reported in the supplement of paper PMC11417369.
# ± gives the standard deviation of the averaged measurements. Some of the results follow.
# Test system: PfAP2-LT AP2 domain (GST-tagged)
# Experiment: gcPBM binding intensity (ln(normalized median fluorescence intensity)); higher = stronger DNA binding
# In short: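 GST-tagged P. falciparum DNA-binding domains, expressed in E. coli (about 25 μg on average), were applied for 1 h to an Agilent 4 × 180k array of primer-extended double-stranded 36-bp intergenic genomic probes plus negative controls. The binding buffer was 1× PBS with 1% milk, 0.2 mg/ml BSA, 0.5% salmon testes DNA and 0.03% Triton X-100. Bound protein was detected with Alexa488 anti-GST antibody and scanned at 488 nm. Binding intensity is the highest Masliner-normalised natural-log median intensity across replicate spots of either probe orientation.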
row,Sequence,gcPBM binding intensity (ln)
1,TATAATGTTAAATAATGTACATATATTTTTTTTTTT [XGTACX_site4722],8.5 ± 0.51
2,TTACAATTTAATATATGTACATATTTGTGATTTATC [XGTACX_site2911],8.76 ± 0.47
3,TATATATATTAAAAAGTGCATTATTCATATTATATA [GTGCAC_site9400],8.41 ± 0.39
4,TTTATTAATAATTATACACACATATAAAATGAATAA [CACACA_site1359],8.58 ± 0.51
5,AAAATATCTTGTTACTGTACAAATATAAATAAATAC [XGTACX_site3684],8.65 ± 0.54
6,CATGAATCCTAATAATGTACATAAGAATTCATAATG [XGTACX_site1607],8.73 ± 0.33
7,TACATATATATATATGAACACACAAAAAGAATATTT [CACACA_site8421],9.05 ± 0.44
8,ATAAGCATACATATTACACACATATAATATATATAT [CACACA_site2487],9.11 ± 0.31
9,AGTGGATAAATTTATTCACACATTTTTTTTTTTTTT [CACACA_site5914],8.51 ± 0.41
10,TCTTACTAATTTATGGGGACTTATCACCTATTCAGT [CACACA_negctrl_site652],8.72 ± 0.59
11,TTTTATGAGAAACACACACACAAAAAAAAAAAAAAA [CACACA_site4129],9.05 ± 0.47
12,AAAAAAAAAAAAAAAACACACATACACATATATTTT [CACACA_site7768],9.12 ± 0.26
13,TATATTATTTATAGTAGTACATAAAATATAAATATT [XGTACX_site4417],8.55 ± 0.49
14,ATAATACATACATACATACACACATATATATATATT [CACACA_site3576],9.29 ± 0.38
15,TATTGTATTTCATATTGTACTAAAAAAAAAAAAAAG [XGTACX_site6694],8.31 ± 0.46
16,TAAAAAAAAAAAAAAACACACATATAAATATTTATA [CACACA_site6702],8.55 ± 0.4
17,TCAATAATAAAAAACACACACAAAAAAAAATAATTA [CACACA_site2798],9.21 ± 0.52
18,AACAAAGTCATACATACATACATATATATATATATA [GTGCAC_negctrl_site632],9.64 ± 0.14
19,AAATTAAAATAAAATAGTACATATATTTATATTTTT [XGTACX_site1687],8.35 ± 0.42
20,TATAAAAAAAAAAAAAAAAAAAAAAATATATATATA [CACACA_negctrl_site817],8.79 ± 0.25
21,TATTATTTTTCATATGCATGCAAAAATAAAAAAATA [TGCATGCA_site350],8.56 ± 0.22
22,ATTTTTTTGTATATATATGACTGGGGATATAATCAA [GTGCAC_negctrl_site274],8.74 ± 0.35
23,ATGAAAAAAAAAAAAAAAAAAAAAAAAAAAAAAATA [CACACA_negctrl_site1083],8.37 ± 0.55
24,AAAAAAAAAAAAAATTGTACTTAAATATATATATAT [XGTACX_site7604],8.62 ± 0.33
25,TAAACATTCTTATATAGTACCCATATTAAAATATAC [XGTACX_site8014],8.54 ± 0.41
26,TTAGCTTATCATTACTGTACTTTATTCATATATATG [XGTACX_site8008],9.01 ± 0.49
27,ATTTTTTTTTCTTGTACACACTATTTTATAATTTTA [CACACA_site6102],9.13 ± 0.49
28,ACATACATATATTTATGTACATATATATTTATGATT [XGTACX_site6485],8.81 ± 0.42

row,Sequence,gcPBM binding intensity (ln)
1,TTTTGGTGTATAGTATTAATATAAAATAATTATATT [CACACA_negctrl_site47],8.36 ± 0.42
2,AATTTATATTTATGTGCATGTAATAACTGTATATAA [TGCATGCA_site349],8.71 ± 0.31
3,AAAAAAAGATTATACACACACATATATAAACATACA [CACACA_site4553],9.54 ± 0.3
4,TATAAATATTATAATTGTACATATTATAAAAATTTT [XGTACX_site2719],8.4 ± 0.47
5,TTTAAAATTTAATTTTGTACATATACCAATTTTATT [XGTACX_site448],8.57 ± 0.57
6,AATTAGCATAAATGGGTGCTACACAAAAATGCATGT [GTGCAC_site9640],9.04 ± 0.38
7,AATATATAATCAGATGAATTTTTTTTTTTTTTTTCA [CACACA_negctrl_site534],8.18 ± 0.48
8,ATATAATATATGTTATGTACATAGTTTTTATTGTTC [XGTACX_site7438],8.87 ± 0.46
9,ATATAATGTTAGGGTAGAGGAAGTAACTAATATAAA [CACACA_negctrl_site1153],8.76 ± 0.56
10,AATTTTTTATTCTTTGCATGTCATCATATATAATAT [TGCATGCA_site549],9.02 ± 0.32
11,ATATAAATATGAAAAAGTACAAGCCATCAAGAAATC [XGTACX_site8140],9.04 ± 0.41
12,AAATATATAAAAGTATGTACATATGAAAAATATATA [XGTACX_site6165],8.94 ± 0.52
13,TTATAAAGAATTAGGAGTACAAATGCATATATAATA [XGTACX_site6580],8.86 ± 0.47
14,TTATATAACATAACGATGTTTCAAAACATATTGTAT [CACACA_negctrl_site997],8.62 ± 0.45
15,AGCAACTAAAAAGGATACCCCATTAAAAAAAAATTA [XGTACX_negctrl_site489],8.64 ± 0.51
16,TGTGTATAAAAAAAGTGTACACAAAGTAAGACTTTA [XGTACX_site3759],8.96 ± 0.42
17,TACCAAAAAACGGCACGCATATGTATAAGAATATGT [XGTACX_negctrl_site470],9.04 ± 0.28
18,TTAATTAAGAAACACACACACATATATATATATATT [CACACA_site2290],9.79 ± 0.12
19,ATATAATAAATGTCATGTACATACAACATTTTAACT [XGTACX_site7517],8.78 ± 0.32
20,TATTAATAATTTTCATGTACATATGTATTTGTAATA [XGTACX_site858],8.69 ± 0.45
21,TGAATAAAGAAACACACACACATATATATATATGTA [CACACA_site17],9.6 ± 0.25
22,TTTTTAATTTACTGTCATAGGTACCTTAACTTATCA [CACACA_negctrl_site1664],8.83 ± 0.47
23,TACTTATGTTCGCACACATGCAAATTAAAAAAAAAA [TGCATGCA_site1023],9.07 ± 0.4
24,TACATATACATATTGTGTACATAATAATTATTTATA [XGTACX_site7884],8.73 ± 0.35
25,GTGGATATATGTATATGTACATATGTATGTATATAT [XGTACX_site2412],9.04 ± 0.33
26,ATTTTTTTACTGGATCCATATTTGCTTTTTTATTTA [CACACA_negctrl_site1108],9.01 ± 0.45
27,GTATATTTTATTTTATGTACATATTCATTTTTTATT [XGTACX_site561],9.13 ± 0.57
